Results from patent US20250136618A1, “ANTIBIOTIC PYRAZINOTHIAZINE DERIVATIVES AND PROCESS OF PREPARATION THEREOF” (Bugworks Research India PVT Ltd, priority 2021, published 2025).
Like-named read-outs stand apart in the source and are kept apart here.

What was measured:
[1] = biological target: E. coli topoisomerase IV (Escherichia coli (strain K12), UniProt P0AFI2+P20083); test: biochemical
Protocol: E. coli topoisomerase IV decatenation activity and its inhibition was assayed using a kit procured from Inpiralis (D4002) and the kit protocol was adapted with necessary modifications similar to the gyrase supercoiling assays. The compounds 1, 2, 3 and 4 were incubated individually for 10 minutes with 5 nM of E. coli topoisomerase IV in a 30 μl reaction volume and 3.2% DMSO. The reactions were started with the addition of 60 ng of kDNA and continued for 40 min at 37° C. The final reaction mixture contained 40 mM Tris-HCl (pH 7.6), 100 mM potassium glutamate, 10 mM magnesium acetate, 10 mM DTT, 1 mM ATP, and 50 μg/ml albumin. The reactions were stopped by addition of 0.75 μL of Proteinase K (20 mg/mL) and 3 μL of 2% SDS and further incubated at 37° C. for 30 min. This was followed by the addition of 4 μL of STEB (40% (w/v) sucrose, 100 mM Tris-HCl pH8, 1 mM EDTA, 0.5 mg/ml Bromophenol Blue) and the kDNA/minicircles forms were separated by agarose gel electrophoresis. The 1% agarose gels were run for 3 h at 4V/cm in 1×TAE (40 mM Tris, 20 mM Acetic acid, 1 mM EDTA). To visualize the DNA, the gels were stained for 10 min with 0.7 μg/mL ethidium bromide and excess dye was removed by several washes with water. IC50 values were determined by quantifying the Kinetoplast DNA band inside the gel well and decatenated minicircles that migrate into the gel in each of the reactions from a gel image by a densitometric method using the Quantity One Software (Bio-rad).

[2] = biological target: E. coli DNA gyrase (Escherichia coli (strain K12), UniProt P0AES4+P0AES6); test: biochemical
Protocol: E. coli gyrase supercoiling and its inhibition was assayed using a kit procured from Inpiralis (K0001) and the protocol (PMID: 2172086) was adapted with necessary modifications. The compounds to be tested were incubated for 10 minutes with 2.5 nM of E. coli DNA gyrase in a 30 μl reaction volume and 3.2% DMSO. The reactions were then started with the addition of 60 ng relaxed pBR322 plasmid DNA and continued for 45 min at 37° C. The reaction mixture contained 35 mM Tris-HCl (pH 7.5), 24 mM KCl, 1.8 mM spermidine, 4 mM MgCl2, 2 mM DTT, 6.5% (w/v) glycerol, 0.1 mg/mL BSA, and 1 mM ATP. The reaction was then stopped by addition of 0.75 μL of Proteinase K (20 mg/mL) and 3 μL of 2% SDS and further incubated at 37° C. for 30 min. This was followed by the addition of 4 μL of STEB (40% (w/v) sucrose, 100 mM Tris-HCl (pH 8), 1 mM EDTA, 0.5 mg/ml Bromophenol Blue), and the supercoiled/relaxed forms of plasmid DNA were separated by agarose gel electrophoresis. The 1% agarose gels were run for 3 h at 4V/cm in 1×TAE (40 mM Tris, 20 mM Acetic acid, 1 mM EDTA). To visualize the DNA, the gels were stained for 10 min with 0.7 μg/mL ethidium bromide and excess dye was removed by several washes with water. IC50 values were determined by quantifying the supercoiled and relaxed DNA in each of the reactions from a gel image by a densitometric method using the Quantity One Software (Bio-rad).

[3] = read-out: E. coli Topo IV IC50, gel based decatenation assay
[4] = read-out: E. coli DNA Gyrase IC50, gel based supercoiling assay

Row | Molecule | IC50 [1, 3] [nM] | IC50 [2, 4] [nM] | other results
1 | [2H]C([2H])([2H])N1C(=O)CNc2ccc(OCCNCC3CN(c4cnc5c(n4)NC(=O)CS5)C(=O)O3)nc21 (stereo in doubt) [Compound 9, (R)-5-(((2-((4-(methyl-d3)-3-oxo-1,2,3,4-tetrahydropyrido[2,3-b]pyrazin-6-yl)oxy)ethyl)amino)methyl)-3-(3-oxo-3,4-dihydro-2H-pyrazino[2,3-b][1,4]thiazin-6-yl) oxazolidin-2-one] | 91 | 170 | –
2 | Cn1c(=O)cnc2ccc(OCCNC[C@H]3CN(c4cnc5c(n4)NC(=O)CS5)C(=O)O3)nc21 [Compound 1, (S)-5-(((2-((4-Methyl-3-oxo-3,4-dihydropyrido[2,3-b]pyrazin-6-yl)oxy)ethyl)amino)methyl)-3-(3-oxo-3,4-dihydro-2H-pyrazino[2,3-b][1,4]thiazin-6-yl)oxazolidin-2-one, reference compound] | 50 | 25 | –
3 | Cn1c(=O)ccc2ncc(OCCNC[C@H]3CN(c4cnc5c(n4)NC(=O)CS5)C(=O)O3)nc21 [Compound 2, (S)-5-(((2-((5-Methyl-6-oxo-5,6-dihydropyrido[2,3-b]pyrazin-3-yl)oxy)ethyl)amino)methyl)-3-(3-oxo-3,4-dihydro-2H-pyrazino[2,3-b][1,4]thiazin-6-yl)oxazolidin-2-one, reference compound] | – | – | IC50 [1]: 45 nM; IC50 [2]: 13 nM
4 | Cn1c(=O)cnc2ccc(OCCNC[C@@H]3CN(c4cnc5c(n4)NC(=O)CS5)C(=O)O3)nc21 [Compound 3, (R)-5-(((2-((4-methyl-3-oxo-3,4-dihydropyrido[2,3-b]pyrazin-6-yl)oxy)ethyl)amino)methyl)-3-(3-oxo-3,4-dihydro-2H-pyrazino[2,3-b][1,4]thiazin-6-yl)oxazolidin-2-one] | 50 | 30 | –
5 | Cn1c(=O)ccc2ncc(OCCNC[C@@H]3CN(c4cnc5c(n4)NC(=O)CS5)C(=O)O3)nc21 [Compound 4, (R)-5-(((2-((5-methyl-6-oxo-5,6-dihydropyrido[2,3-b]pyrazin-3-yl)oxy)ethyl)amino)methyl)-3-(3-oxo-3,4-dihydro-2H-pyrazino[2,3-b][1,4]thiazin-6-yl)oxazolidin-2-one] | – | – | IC50 [1]: 44 nM; IC50 [2]: 25 nM
6 | CN1C(=O)CNc2ccc(OCCNC[C@@H]3CN(c4cnc5c(n4)NC(=O)CS5)C(=O)O3)nc21 [Compound 5, (R)-5-(((2-((4-methyl-3-oxo-1,2,3,4-tetrahydropyrido[2,3-b]pyrazin-6-yl)oxy)ethyl)amino)methyl)-3-(3-oxo-3,4-dihydro-2H-pyrazino[2,3-b][1,4]thiazin-6-yl)oxazolidin-2-one] | 110 | 320 | –
7 | CN1C(=O)CNc2ccc(OCCNC[C@H]3CN(c4cnc5c(n4)NC(=O)CS5)C(=O)O3)nc21 [Compound 6, (S)-5-(((2-((4-methyl-3-oxo-1,2,3,4-tetrahydropyrido[2,3-b]pyrazin-6-yl)oxy)ethyl)amino)methyl)-3-(3-oxo-3,4-dihydro-2H-pyrazino[2,3-b][1,4]thiazin-6-yl)oxazolidin-2-one] | 130 | 120 | –
8 | CN1C(=O)CNc2cc(F)c(OCCNC[C@@H]3CN(c4cnc5c(n4)NC(=O)CS5)C(=O)O3)nc21 [Compound 7, (R)-5-(((2-((7-fluoro-4-methyl-3-oxo-1,2,3,4-tetrahydropyrido[2,3-b]pyrazin-6-yl)oxy)ethyl)amino)methyl)-3-(3-oxo-3,4-dihydro-2H-pyrazino[2,3-b][1,4]thiazin-6-yl)oxazolidin-2-one] | – | 67 | –
9 | CN1C(=O)CNc2cc(F)c(OCCNC[C@H]3CN(c4cnc5c(n4)NC(=O)CS5)C(=O)O3)nc21 [Compound 8, (S)-5-(((2-((7-fluoro-4-methyl-3-oxo-1,2,3,4-tetrahydropyrido [2,3-b]pyrazin-6-yl)oxy)ethyl)amino)methyl)-3-(3-oxo-3,4-dihydro-2H-pyrazino[2,3-b][1,4]thiazin-6-yl)oxazolidin-2-one] | – | 95 | –
10 | (S)-5-(((2-((4-Methyl-d3)-3-oxo-1,2,3,4-tetrahydropyrido[2,3-b]pyrazin-6-yl)oxy)ethyl)amino)methyl)-3-(3-oxo-3,4-dihydro-2H-pyrazino[2,3-b][1,4]thiazin-6-yl)oxazolidin-2-one [Compound 10] | – | – | IC50 ([1]; read-out: E. coli Topo IV IC50): 78 nM; IC50 ([2]; read-out: E. coli DNA Gyrase IC50): 70 nM
